# Experimental data as given in a collection of fitness landscapes (doi:10.1038/s41467-024-54723-y).
# In all, about 18,000 sequences were measured (“TetR repression strength (sort-seq, GFP reporter)”: median about 0.23, highest 2% from about 0.68 on). Some of the results follow.
# Molecular target: TetR (class B, Tn10) (UniProt P04483)
# Test: TetR repression strength (sort-seq, GFP reporter) (relative to tetO2 = 1); higher = stronger repression
# Conditions: E. coli
# Summary of the method: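 In LB with 50 µg/mL chloramphenicol, E. coli SIG10-MAX holding a low-copy library with eight randomized operator positions between a constitutive promoter and sfGFP, plus constitutive TetR, grew for 5 h at 37 °C. FACS then sorted 10^6 cells into 13 fluorescence bins for Illumina sequencing of each bin. Repression strength equals the top bin index plus one less the read-weighted mean bin, normalized to the unaltered operator. Values from three independent transformations were averaged when reads were ≥30 in every replicate and the CV was ≤0.5.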
# Sequence of UniProt P04483 (P04483 whole entry): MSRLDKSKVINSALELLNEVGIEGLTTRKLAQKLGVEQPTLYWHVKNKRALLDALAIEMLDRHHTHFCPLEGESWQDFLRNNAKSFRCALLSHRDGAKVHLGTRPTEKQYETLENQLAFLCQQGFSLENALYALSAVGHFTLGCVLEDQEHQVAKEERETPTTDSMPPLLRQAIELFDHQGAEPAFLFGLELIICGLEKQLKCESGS
row,Sequence,TetR repression strength
1,TCCCCATAAGTTGTTGAGA,0.311
2,TCCCCACTAGTTTCAGAGA,0.389
3,TCCCCGTGAGTAGAAGAGA,0.276
4,TCCCTGTGAGTGGGGGAGA,0.419
5,TCCCACTTAGTGACAGAGA,0.396
6,TCCCCCGGAGTGGGAGAGA,0.175
7,TCCCGAACAGTCTGGGAGA,0.427
8,TCCCAAACAGTTGTTGAGA,0.207
9,TCCCACCCAGTCAGAGAGA,0.291
10,TCCCAATTAGTCGTGGAGA,0.415
11,TCCCAGGAAGTGCAAGAGA,0.473
12,TCCCACCTAGTCTGCGAGA,0.302
13,TCCCTAAGAGTATGAGAGA,0.21
14,TCCCTAACAGTCTGAGAGA,0.182
15,TCCCCATCAGTTGTAGAGA,0.222
16,TCCCCGAAAGTTTGCGAGA,0.309
17,TCCCGGCGAGTATGTGAGA,0.364
18,TCCCAGTTAGTGAGCGAGA,0.15
19,TCCCTTCTAGTAATTGAGA,0.415
20,TCCCGTAGAGTCTTGGAGA,0.0401
21,TCCCGGGCAGTTAAGGAGA,0.196
22,TCCCGCGGAGTAGGAGAGA,0.239
23,TCCCATCAAGTTAATGAGA,0.0658
24,TCCCACAGAGTTGCCGAGA,0.315
25,TCCCGCCGAGTTGTGGAGA,0.294
26,TCCCTGTCAGTCGTAGAGA,0.514

row,Sequence,TetR repression strength
1,TCCCGTGAAGTCGGCGAGA,0.135
2,TCCCATCTAGTGAGTGAGA,0.316
3,TCCCTTAGAGTATCAGAGA,0.0706
4,TCCCTAGTAGTCTAGGAGA,0.2
5,TCCCAACTAGTAAGGGAGA,0.239
6,TCCCAATCAGTAGGAGAGA,0.185
7,TCCCGGGTAGTCGGTGAGA,0.237
8,TCCCGCAAAGTAGCGGAGA,0.301
9,TCCCGTGCAGTCAGAGAGA,0.296
10,TCCCGAGGAGTGGAGGAGA,0.184
11,TCCCTCACAGTACAGGAGA,0.234
12,TCCCAAGAAGTATGCGAGA,0.135
13,TCCCAGGGAGTACCAGAGA,0.244
14,TCCCTTGCAGTATCCGAGA,0.611
15,TCCCAGTTAGTACGGGAGA,0.387
16,TCCCATCTAGTGGAGGAGA,0.449
17,TCCCAATAAGTCGCAGAGA,0.162
18,TCCCGACGAGTGCGTGAGA,0.349
19,TCCCAGCTAGTGGGTGAGA,0.0777
20,TCCCTACTAGTAGACGAGA,0.55
21,TCCCCATGAGTCAAGGAGA,0.26
22,TCCCCATGAGTTCAGGAGA,0.181
23,TCCCGCTTAGTTGAAGAGA,0.256
24,TCCCGAAAAGTTGGAGAGA,0.389
25,TCCCGGTGAGTAACCGAGA,0.333
26,TCCCGAAGAGTAGGGGAGA,0.219

row,Sequence,TetR repression strength
1,TCCCCTTGAGTCCTCGAGA,0.426
2,TCCCTTGAAGTGTACGAGA,0.242
3,TCCCGGGGAGTGTCCGAGA,0.125
4,TCCCGTGCAGTGGTCGAGA,0.0346
5,TCCCCGACAGTGGCGGAGA,0.167
6,TCCCGATCAGTCATAGAGA,0.609
7,TCCCGAGGAGTGCCTGAGA,0.207
8,TCCCCACGAGTTAGCGAGA,0.227
9,TCCCAAACAGTAGGCGAGA,0.331
10,TCCCATATAGTTATTGAGA,0.248
11,TCCCCGGAAGTGTGCGAGA,0.201
12,TCCCCGTGAGTTGAAGAGA,0.21
13,TCCCGGAAAGTAGTTGAGA,0.133
14,TCCCGCGTAGTGTTAGAGA,0.309
15,TCCCTACGAGTTGTTGAGA,0.46
16,TCCCATCTAGTGCACGAGA,0.337
17,TCCCTTAGAGTTGTCGAGA,0.177
18,TCCCTGCTAGTGGAGGAGA,1.14
19,TCCCAACCAGTGTATGAGA,0.469
20,TCCCTGCCAGTAATCGAGA,0.313
21,TCCCAGGGAGTCACTGAGA,0.22
22,TCCCTGTTAGTAATGGAGA,0.229
23,TCCCAGGAAGTACGGGAGA,0.19
24,TCCCGCTTAGTTGGTGAGA,0.104
25,TCCCGGTAAGTACAGGAGA,0.139
26,TCCCTCGTAGTTGAAGAGA,0.157

row,Sequence,TetR repression strength
1,TCCCTATCAGTAACTGAGA,0.474
2,TCCCAGGGAGTCATGGAGA,0.135
3,TCCCATTCAGTTGCCGAGA,0.138
4,TCCCAAGTAGTATTGGAGA,0.176
5,TCCCAGGGAGTTGGGGAGA,0.111
6,TCCCGAGGAGTATCGGAGA,0.0809
7,TCCCCACCAGTGGGAGAGA,0.192
8,TCCCACAGAGTAGGCGAGA,0.169
9,TCCCCGACAGTCAGGGAGA,0.193
10,TCCCTTGCAGTTTAGGAGA,0.365
11,TCCCAGGCAGTCTTAGAGA,0.0273
12,TCCCCCGTAGTTAACGAGA,0.49
13,TCCCGGTAAGTCGCGGAGA,0.0153
14,TCCCAAAGAGTTTGTGAGA,0.0868
15,TCCCGTGTAGTTGCGGAGA,0.159
16,TCCCATGAAGTTTTGGAGA,0.207
17,TCCCGCGGAGTAGGGGAGA,0.238
18,TCCCATGAAGTAGGTGAGA,0.17
19,TCCCGTAAAGTTCTTGAGA,0.0183
20,TCCCCTCAAGTTGGGGAGA,0.292
21,TCCCCGTCAGTAGTTGAGA,0.264
22,TCCCCCTGAGTCGTCGAGA,0.255
23,TCCCCCAGAGTTTTCGAGA,0.438
24,TCCCGACAAGTTGACGAGA,0.119
25,TCCCCACCAGTAATCGAGA,0.474
26,TCCCGTCGAGTGGCAGAGA,0.125

row,Sequence,TetR repression strength
1,TCCCCCAGAGTAATGGAGA,0.337
2,TCCCGACGAGTTGAGGAGA,0.16
3,TCCCCGCTAGTGCATGAGA,0.48
4,TCCCGATGAGTGTTTGAGA,0.433
5,TCCCGGTAAGTCGAGGAGA,0.153
6,TCCCGCGCAGTGAGAGAGA,0.137
7,TCCCTCATAGTTCATGAGA,0.0965
8,TCCCTTGCAGTCAATGAGA,0.251
9,TCCCGGGCAGTAGTAGAGA,0.401
10,TCCCGGGTAGTACTCGAGA,0.0504
11,TCCCGTCGAGTAGTTGAGA,0.475
12,TCCCCGCCAGTTATCGAGA,0.368
13,TCCCCAATAGTGCCCGAGA,0.304
14,TCCCGCAGAGTAGAGGAGA,0.21
15,TCCCTACTAGTGAGCGAGA,0.306
16,TCCCCCTGAGTGGTAGAGA,0.242
17,TCCCCTTCAGTCTCGGAGA,0.104
18,TCCCGGATAGTGTGCGAGA,0.204
19,TCCCTTCCAGTCGGGGAGA,0.207
20,TCCCCCGAAGTGTGTGAGA,0.0538
21,TCCCCTACAGTGCCAGAGA,0.269
22,TCCCGTATAGTGGCAGAGA,0.198
23,TCCCTCTCAGTAATAGAGA,0.686
24,TCCCGTTAAGTAGCGGAGA,0.503
25,TCCCGCCAAGTGAGTGAGA,0.25
26,TCCCCTAGAGTCAACGAGA,0.368
